{
  "source": "paper PMC9173704",
  "about": "“Relationships Between Plasminogen-Binding M-Protein and Surface Enolase for Human Plasminogen Acquisition and Activation in Streptococcus pyogenes” (Frontiers in Microbiology, 2022)",
  "target": "the molecule itself",
  "assay": "SEC-MALS; each protein 100 μl of 1 mg/ml on a WTC-030S5 column, PBS, pH 7.4, flow rate 0.5 ml/min",
  "data": [
    {"protein": "recombinant human enolase (hEno) (enzyme, human enolase (heno gene, NCBI NM_001428.5) amplified from human liver cDNA, nt 1 to nt 1308 of the reading frame, called full-length; Dimer by SEC-MALS and AUC) not shown", "values": [
      {"measurement": "stoichiometry N", "result": 2}
    ]}
  ]
}
